Some of the results follow. At the low end of the ranking, values are background and their order means little.

The assay relates to T1, GST-NbGlk1(82-244).
T1 sequence: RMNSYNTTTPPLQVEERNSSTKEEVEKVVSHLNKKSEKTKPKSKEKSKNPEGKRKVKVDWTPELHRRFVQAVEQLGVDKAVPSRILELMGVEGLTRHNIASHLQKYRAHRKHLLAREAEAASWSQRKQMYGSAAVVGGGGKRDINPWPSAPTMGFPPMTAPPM
Briefly: protein-binding microarray.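 Further: rank-based score ranging −0.5 to +0.5 with E above 0.45 taken as significant binding.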 The following applies: NbGlk1 is a Golden2-like transcription factor of Nicotiana benthamiana; high values mean tight binding; most listed sequences are background and not binding sites; double strand, one strand shown.
ACAAAGGC: the binding signal is -0.309 E-score. Consider ACCTGTCG, for which the binding signal was -0.124 E-score. In the case of ACCAAGCG it was -0.245 E-score. Then AGGGGGGC, with -0.266 E-score; and ATTGTATG, with 0.15 E-score; and AATCCTTG, with 0.336 E-score. Then ATCGACCC, with -0.0445 E-score. Sequence CAGAGCCG showed a binding signal of -0.271 E-score.

Turning to AGAGGTGA, the binding signal was -0.113 E-score. Then ATGATTGA, with -0.0576 E-score; and ATTAGGCC, with -0.0856 E-score. In the case of AAGATCCC it was 0.333 E-score; in that of AAAACGCA, 0.0376 E-score. Then AGCGGGAG, with -0.173 E-score. For CAACTGTC, the binding signal is -0.166 E-score.

CAAATATC registered a binding signal of 0.375 E-score. In the case of ACGACGGA it was 0.013 E-score. In turn, AACATGAA gave a binding signal of 0.0283 E-score. Then ACGGCCTC, with -0.146 E-score; and CAAAGCCA, with -0.195 E-score. Then AGTGGGCA, with -0.0248 E-score. Then AATAATGT, with 0.179 E-score. On to ACTATAAC, for which the binding signal was -0.0973 E-score. In the case of ATAACTTG it was 0.105 E-score; in that of AAATCCAT, 0.422 E-score. In the case of AAGAATAT it was 0.331 E-score; in that of AGAATACG, 0.16 E-score. Then ATCTTACG, with 0.274 E-score; and ATTTCGCA, with 0.279 E-score; and CAAAAAAG, with 0.0516 E-score. Regarding ACACGGGC, the binding signal is -0.15 E-score. In the case of ATGACTCG it was -0.0232 E-score. Then ATCTCCTC, with 0.296 E-score; and ATATTCGG, with 0.228 E-score; and ATTCTCCA, with 0.31 E-score.

As to AACTGTCC, the binding signal is -0.133 E-score. Take AGAGCCTA: the binding signal is -0.116 E-score. In turn, ACAACACT registered a binding signal of -0.0589 E-score. With ACATGGAC, the binding signal is -0.114 E-score. For ATTCATTG, the binding signal amounted to 0.0123 E-score.

CACTCCTG registered a binding signal of -0.13 E-score. Then AGAGTGTC, with -0.135 E-score; and AACCCGGG, with -0.126 E-score. In the case of ACGAGGCG it was -0.183 E-score. Sequence ACGCGCGA came in with a binding signal of 0.112 E-score. In the case of CACGTAAC it was 0.00439 E-score. Then AGAGTTTC, with -0.13 E-score; and ACGTCCCG, with -0.257 E-score; and CACATGTA, with -0.000115 E-score. In turn, AAGAGACC had a binding signal of -0.223 E-score.

ATTTGCAA gave a binding signal of 0.304 E-score. Then AGCCTTTA, with -0.147 E-score. In the case of ATGGGGAG it was -0.0436 E-score; in that of AACCGGGA, -0.228 E-score; in that of ATTTATCA, 0.155 E-score. In the case of CAAACTCG it was -0.0723 E-score; in that of AGAGGCTG, -0.255 E-score; in that of ACCATGCG, -0.132 E-score. The sequence ACTCCCTC had a binding signal of -0.224 E-score. Then AACTGTAA, with 0.0394 E-score; and AAAGTTAC, with -0.101 E-score; and ACGATGAA, with -0.0966 E-score. CAATCGTC gave a binding signal of 0.124 E-score. For the sequence AAGTTTAC, the binding signal is -0.193 E-score. Then ACGAATTC, with 0.114 E-score; and AGATTCCG, with 0.463 E-score; and ACGATGAT, with 0.129 E-score. In the case of AGGCAAGA it was 0.0702 E-score; in that of ATCAAGAT, 0.294 E-score. Then ACGTTCAT, with -0.147 E-score; and ACTTATGA, with 0.169 E-score; and AATTTAGA, with 0.251 E-score. As for ATTAATCG, the binding signal was 0.0912 E-score. In the case of ACGTATAG it was 0.0747 E-score; in that of ATGTCACA, 0.15 E-score. Sequence AAAGGCAT registered a binding signal of -0.277 E-score.

In the case of AGACAAAT, the binding signal was 0.145 E-score. In the case of CAAGCAGC it was -0.168 E-score. Sequence ACTTGGGG registered a binding signal of -0.0916 E-score. As for ACATTCCC, the binding signal was found to be 0.0444 E-score. Then AAGCCTGG, with -0.216 E-score; and ATGAAAAA, with 0.0906 E-score. Then AAACAGCT, with 0.0135 E-score; and ACATTGTC, with -0.0399 E-score; and ACGCGAGG, with -0.0886 E-score.

On to ACACAGTG, for which the binding signal was -0.114 E-score. In the case of AACCGCTG it was -0.201 E-score; in that of ACCATCAT, 0.0644 E-score; in that of CACGCAAG, -0.0861 E-score. Then ACCGAGGA, with -0.177 E-score.

CACTCCTA registered a binding signal of -0.21 E-score. In the case of ATCAGTTG it was 0.0718 E-score. In the case of ACACATAC it was 0.0816 E-score; in that of CAAATAAG, 0.053 E-score; in that of AACGGATA, 0.215 E-score. The sequence ACGGAACA gave a binding signal of -0.0487 E-score. In the case of ATAGATCG it was 0.206 E-score; in that of ACGTGTAC, -0.162 E-score; in that of AAATTCGG, 0.227 E-score. In the case of ATCTATAA it was 0.224 E-score; in that of AACGCCCG, -0.183 E-score; in that of AGGACAGA, -0.0906 E-score. Then AGGCCCTC, with -0.299 E-score; and AGCCATCG, with -0.207 E-score. On to AAGATATA, for which the binding signal is 0.31 E-score. In turn, CAGATTCG yielded a binding signal of 0.438 E-score. Then ACACATCG, with 0.0893 E-score; and CACGCTTA, with -0.0854 E-score. In the case of AGGGGTAT it was -0.0239 E-score; in that of AACGGGCG, -0.0601 E-score; in that of CAAGCAAC, -0.245 E-score. In the case of AAGATTAA it was 0.117 E-score.

The sequence AGGAGAGG showed a binding signal of -0.276 E-score.

On to ACCTATAC, for which the binding signal is -0.046 E-score. The sequence AAAAAGGC came in with a binding signal of -0.0876 E-score.

For the sequence AGATTGAA, the binding signal came out at 0.0399 E-score. In the case of CAATGCAC it was -0.0881 E-score. In the case of AAGTCTGT it was -0.0934 E-score. As for AACGATAG, the binding signal was -0.0843 E-score. Then AGAGATAG, with 0.106 E-score.

With AGGTGAAG, the binding signal is -0.138 E-score. In the case of ACGGACCC it was -0.0331 E-score; in that of AGCTCGGA, 0.0916 E-score.

Turning to AGGGTGTA, the binding signal was 0.0464 E-score. In the case of AACCGTGC it was -0.113 E-score; in that of AGGTTTTA, -0.0542 E-score. In the case of AGCCGGTA it was -0.282 E-score. In the case of ATTTCGCG it was 0.305 E-score. ACGACCCT had a binding signal of -0.182 E-score.

The sequence AGTTAACG showed a binding signal of -0.0894 E-score. In the case of ACCTTCGG it was -0.216 E-score; in that of ACTTGAGG, 0.0371 E-score; in that of AGTATAAG, 0.0124 E-score. Then AATTACTC, with 0.152 E-score. As to AAGCCTGC, the binding signal is -0.231 E-score. Then ATCGTCTA, with 0.208 E-score.

AGTGCGGG showed a binding signal of -0.155 E-score.

As to AACCTGTA, the binding signal is -0.081 E-score. With AAGCCCTA, the binding signal is -0.232 E-score. Then AGAAGACC, with -0.255 E-score; and AACGCACA, with 0.00654 E-score. Consider AAACCTGT, for which the binding signal was -0.127 E-score. ATACTTAG: the binding signal is -0.0266 E-score. Then ACTTCCCC, with -0.206 E-score.

The sequence AGTCCTCG registered a binding signal of -0.3 E-score. Then AGGGTGTG, with -0.224 E-score.

ATCTATCC came in with a binding signal of 0.191 E-score. In the case of ATTCCGTA it was 0.308 E-score; in that of AATGTGTG, 0.0225 E-score.

In the case of AAATTACC, the binding signal stood at 0.252 E-score. In the case of CAACGGGA it was 0.0414 E-score. Then AGAGGTCG, with -0.203 E-score; and AAGCATTC, with -0.217 E-score; and AAGAATGG, with 0.04 E-score. Then ATGGTTCA, with -0.0612 E-score; and ATACGTGA, with 0.166 E-score. For AGACACGA, the binding signal was -0.00555 E-score. In turn, ATAAATTG displayed a binding signal of 0.163 E-score. ACGTCACT showed a binding signal of -0.128 E-score.

Regarding AAATATAG, the binding signal amounted to 0.237 E-score. For AGTAGTAC, the binding signal was -0.0215 E-score. In the case of ACGTCTAG it was -0.127 E-score; in that of ACAAACAG, 0.0895 E-score. Regarding AATACGAG, the binding signal was found to be 0.133 E-score. Then AGTATGCC, with -0.135 E-score. Turning to AAGGATGC, the binding signal was -0.0518 E-score.

The sequence ACGTTTTA had a binding signal of 0.0214 E-score.

For the sequence ACACGGTA, the binding signal was -0.0538 E-score. In the case of ACATACGC it was -0.0828 E-score. Then ACTCGCGG, with -0.147 E-score; and AGGAGCGA, with -0.141 E-score. In the case of ATAGAGAC it was 0.048 E-score.

Values taken from PMC5836133.
